Several values for one entry are separate records, joined by “and”; a condition that tells them apart may be missing. Identical values can stand only once. Hit rate of the full screen: of about 230,000 compounds, about 3,600 (1.6%) were called active. This list was built around the results that the source calls inconclusive (neither active nor inactive); the mix of calls is not that of the screen. The call rests on the fitted dose curve; in most records, active means well fitted inhibition curve with a large enough effect (not every such curve was filed as active); inconclusive means small, poorly fitted or top-dose-only effect, or another doubt; inactive means no such curve, though single readings can be large or run the other way. Where the call is inconclusive, the potency comes from a doubtful curve fit.
Target: Lysine-specific demethylase 4E (Homo sapiens) (UniProt B2RXH2)
UniProt B2RXH2, sequence (B2RXH2 whole entry, looked up, the tested form may be a part): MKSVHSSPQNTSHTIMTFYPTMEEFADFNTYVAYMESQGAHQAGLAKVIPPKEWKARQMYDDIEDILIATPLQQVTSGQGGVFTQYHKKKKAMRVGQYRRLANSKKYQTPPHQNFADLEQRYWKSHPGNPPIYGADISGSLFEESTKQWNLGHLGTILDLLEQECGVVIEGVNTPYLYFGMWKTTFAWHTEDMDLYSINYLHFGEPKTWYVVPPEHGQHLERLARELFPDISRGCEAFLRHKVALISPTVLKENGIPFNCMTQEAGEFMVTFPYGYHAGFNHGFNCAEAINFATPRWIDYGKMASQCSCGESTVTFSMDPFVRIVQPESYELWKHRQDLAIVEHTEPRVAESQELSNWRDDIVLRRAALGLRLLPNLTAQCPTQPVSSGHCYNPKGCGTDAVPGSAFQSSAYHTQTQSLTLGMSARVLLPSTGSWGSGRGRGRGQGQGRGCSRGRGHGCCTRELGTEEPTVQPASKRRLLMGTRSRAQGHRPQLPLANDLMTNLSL
Experiment: qHTS Assay for Inhibitors of Human Jumonji Domain Containing 2E (JMJD2E)
Conditions: JMJD2E catalytic domain, FDH-coupled NADH fluorescence (FDH is formaldehyde dehydrogenase); series mostly up to 57.1 µM
Further: nearly all actives have a fitted effect of over 50% in size.
Potency means the concentration at half of the fitted maximal effect; tags describe the fitted curve by direction and shape.
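Wherever activity change, negative = inhibition is given: 0% = wells with enzyme and -100% = buffer wells without enzyme.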

| SMILES | Potency | activity change, negative = inhibition |
| --- | --- | --- |
| Cc1cccc(S(=O)(=O)C(C#N)c2nc3ccccc3nc2N2CC(C)OC(C)C2)c1 (centres undefined) | inconclusive: 11.2 µM [inhibitor, partial curve] |  |
| COC(=O)c1cccc(NC(=O)NC2CCCN2S(=O)(=O)c2ccc(Cl)cc2)c1 (centres undefined) | inconclusive: 39.8 µM [inhibitor, single point] |  |
| Cc1ccc(CSc2nccc(-c3c(C)nc4ccccn34)n2)cc1 | inconclusive: 35.5 µM [inhibitor, partial curve] |  |
| COC(=O)c1cc(-c2ccc(NC(C)=O)cc2)nc2ccccc12 | inconclusive: 35.5 µM [inhibitor, partial curve] |  |
| CCOc1ccccc1N1CC(C(=O)N2CCc3ccccc32)CC1=O (centres undefined) | inactive |  |
| C[C@@H](CO)NC(=O)c1ccc2c3n(nc2c1)-c1ccc(Cl)cc1CO3 | inconclusive: 31.6 µM [inhibitor, single point] |  |
| O=C(c1ccc(Br)o1)N1CCN(c2ccccn2)CC1 | inactive |  |
| O=C(Nc1ccc(Cl)cc1Cl)C1=Cc2ccccc2OC1 | inconclusive: 39.8 µM [inhibitor, single point] |  |
| O=C(NCc1csc(-c2cccs2)n1)C1CC1 | inconclusive: 25.1 µM [inhibitor, partial curve] |  |
| CNC(=O)c1cc2cc(OC)ccc2n1CCN(Cc1ccccc1)Cc1ccccc1 | inconclusive: 28.2 µM [inhibitor, partial curve] |  |
| COc1ccc2cc(C(=O)Nc3ccc(S(N)(=O)=O)cc3)sc(=O)c2c1OC | inconclusive: 22.4 µM [inhibitor, partial curve] |  |
| COc1cccc(CNC(=O)c2c[nH]n3c(=O)c(Cl)c(C)nc23)c1 | inconclusive: 35.5 µM [inhibitor, single point] |  |
| CCOC(=O)c1nc2sc3c(c2c(=O)[nH]1)CCCC3 | inconclusive: 14.1 µM [inhibitor, partial curve] and inconclusive: 31.6 µM [inhibitor, partial curve] |  |
| Nc1ncnc2c1cnn2-c1ccccc1 | inconclusive: 39.8 µM [inhibitor, single point] |  |
| Cc1cc(C)n(-c2nnc(C)n2N)n1 | inconclusive: 31.6 µM [inhibitor, partial curve] |  |
| O=C1c2ccccc2NC(c2ccccc2)N1NS(=O)(=O)c1ccccc1 (centres undefined) | inconclusive: 35.5 µM [inhibitor, partial curve] |  |
| CCC(Sc1ccccn1)C(=O)Nc1cccc([N+](=O)[O-])c1 (centres undefined) | inconclusive: 39.8 µM [inhibitor, single point] |  |
| c1ccc(Cn2c(-c3ccccc3)nc3nc4ccccc4nc32)cc1 | inconclusive: 28.2 µM [inhibitor, partial curve] |  |
| COC(=O)c1sc(=S)n(-c2ccccc2OC)c1N | inactive |  |
| O=C(O)CC1(O)C(=O)N(Cc2ccccc2)c2ccccc21 (centres undefined) | inactive |  |
| O=C(NC1CCCC1)C(c1cc2c(cc1[N+](=O)[O-])OCO2)N1CCCC1 (centres undefined) | inconclusive: 28.2 µM [inhibitor, single point] |  |
| CCCCNC(=S)NNc1c(Cl)cc(Cl)cc1Cl | inactive |  |
| Nc1nc(CN2CCCCCC2)nc(Nc2ccccc2)n1 | inconclusive: 31.6 µM [inhibitor, single point] |  |

| SMILES | Potency | activity change, negative = inhibition |
| --- | --- | --- |
| CC1(C)C(CSc2nc3ccccc3[nH]2)C1(Cl)Cl (centres undefined) | inactive |  |
| CCC(Sc1ccc2nnc(-c3ccc(F)cc3)n2n1)C(=O)OC (centres undefined) | inconclusive: 25.1 µM [inhibitor, single point] |  |
| C=CCn1c2ccccc2c2nnc(SCCCn3c(=O)[nH]c4ccccc43)nc21 | inactive |  |
| COc1cccc(/C=C/C(=C2/C(=O)N(c3ccccc3)N=C2C)c2ccc(C)cc2)c1OC | inactive |  |
| N#Cc1cnn2ccc(-c3ccc4c(c3)CCC4)nc12 | inconclusive: 31.6 µM [inhibitor, partial curve] |  |
| Oc1c(C(c2ccccc2Cl)N2CCCC2)ccc2cccnc12 (centres undefined) | inconclusive: 39.8 µM [inhibitor, single point] |  |
| Cc1cccc(OCC(=O)Nc2ccc3c(c2)nc(CCN2CCN(C)CC2)n3C)c1 | inconclusive: 35.5 µM [inhibitor, single point] |  |
| Cc1ccc(-c2cc(C(=O)N/N=C/c3c[nH]c4ccccc34)[nH]n2)cc1 | inconclusive: 39.8 µM [inhibitor, single point] |  |
| Cc1ccc(-c2nnc(-c3cccc(Br)c3)o2)cc1 | inconclusive: 35.5 µM [inhibitor, single point] |  |
| O=C(NC(=O)c1cccc(F)c1)Nc1nc(-c2ccc(F)cc2)cc(C(F)(F)F)n1 | inconclusive: 25.1 µM [inhibitor, single point] |  |
| COc1ccccc1-c1nc2cc3ccccc3cc2nc1-c1ccccc1 | inconclusive: 28.2 µM [inhibitor, single point] |  |
| CCC(=O)Nc1ccc(-c2cc3ccccc3oc2=O)cc1 | inconclusive: 28.2 µM [inhibitor, partial curve] |  |
| C=CCn1c(COc2ccccc2)nnc1SCC(=O)N/N=C/c1cc(Cl)ccc1O | active: 28.2 µM |  |
| CCc1ccc2n(-c3ccc(OC)cc3)c([S-])c(C(=O)Nc3cc(C)cc(C)c3)[n+]2c1 | inactive |  |
| CCCN(CCC)C(=O)CSc1nc2n[nH]c(C)c2c(=N)n1-c1ccc(OCC)cc1 | inactive |  |
| COc1ccc(-c2cc3nc4ccccc4n3c(N)c2C#N)cc1 | inconclusive: 31.6 µM [inhibitor, partial curve] |  |
| c1ccc2c(C3=NNC(=NC4CC4)SC3)c[nH]c2c1 | inconclusive: 39.8 µM [inhibitor, single point] |  |
| O=c1oc(-c2cccc(Cl)c2)nc2c1cnn2-c1ccccc1 | inconclusive: 35.5 µM [inhibitor, single point] |  |
| COc1ccccc1N1CCN(CC(=O)Nc2cc(F)ccc2C)CC1 | inactive |  |
| CC(C)N1CCC(N2CCN(CCCn3cccn3)CC2CCO)CC1 (centres undefined) | inactive |  |
| CCCCc1nc2c(c3c1C[C@H](C)OC3)CN(C(=O)Cc1cccs1)CC2 |  | inactive: -0.459% [at 11.4 µM] |
| O=C(O)c1ccc(N2C(=O)/C(=C/c3ccc(-c4ccc([N+](=O)[O-])cc4)o3)C=C2c2ccccc2)cc1 | inactive |  |
| Cc1cccc(N(C)S(=O)(=O)c2ccc3[nH]cc(C(=O)N4CCOCC4)c(=O)c3c2)c1 | inconclusive: 39.8 µM [inhibitor, single point] |  |

| SMILES | Potency | activity change, negative = inhibition |
| --- | --- | --- |
| CN1CCc2c(sc3c2C(=O)NC(/C=C\c2ccccc2)N3)C1 (centres undefined) | inconclusive: 25.1 µM [inhibitor, partial curve] |  |
| Cc1ncc([N+](=O)[O-])n1CCOC(=O)c1cc(Cl)cc(Cl)c1N | inconclusive: 31.6 µM [inhibitor, partial curve] |  |
| CC(C)c1ccc(NC(=O)C2CC(=O)N=C(N)S2)cc1 (centres undefined) | inactive |  |
| O=C(Nc1nc(-c2ccc(S(=O)(=O)N3CCCCCC3)cc2)cs1)c1ccccc1 | inconclusive: 25.1 µM [inhibitor, partial curve] |  |
| COC(=O)c1sccc1NC(=O)c1ccc(Cl)s1 | inconclusive: 39.8 µM [inhibitor, single point] |  |
| CCCCn1c(SCC(=O)N2CCOCC2)nnc1-c1ccoc1C | inactive |  |
| COCCn1c(-c2ccc(-c3ccc([N+](=O)[O-])cc3Br)o2)nc2c1c(=O)[nH]c(=O)n2CC(C)C | inconclusive: 8.91 µM [inhibitor, partial curve] |  |
| Nc1cc(N)nc(SCc2cc([N+](=O)[O-])cc3c2OCOC3)n1 | inconclusive: 35.5 µM [inhibitor, single point] |  |
| Cc1cccc(NC(=O)/C(=C\c2ccc([N+](=O)[O-])o2)NC(=O)c2ccc(Cl)cc2)c1 | inactive |  |
| CCOc1ccc(NS(=O)(=O)c2ccc(C(=O)N3CCN(c4ncccn4)CC3)cc2)cc1 | inconclusive: 25.1 µM [inhibitor, single point] |  |
| CCOC(=O)c1n[nH]c2ccccc12 | inconclusive: 35.5 µM [inhibitor, single point] |  |
| CCCC(c1nnnn1Cc1ccc(F)cc1)N1CCN(C)CC1 (centres undefined) | inconclusive: 35.5 µM [inhibitor, single point] |  |
| N#Cc1nc(-c2ccco2)oc1N1CCc2ccccc2C1 | inconclusive: 31.6 µM [inhibitor, partial curve] |  |
| COc1ccc2cc1Oc1ccc(cc1)C[C@H]1c3c(cc4c(c3Oc3cc5c(cc3OC)CCN(C)[C@@H]5C2)OCO4)CCN1C | inconclusive: 39.8 µM [inhibitor, single point] |  |
| O=C(N/N=C/c1cc(Cl)cc(Cl)c1O)c1ccncc1 | inconclusive: 28.2 µM [inhibitor, single point] |  |
| Cn1c(-c2sccc2OCc2ccccc2)n[nH]c1=S | inconclusive: 31.6 µM [inhibitor, partial curve] |  |
| COc1cccc(-c2nn(-c3ccccc3)cc2C(=O)OCC(=O)Nc2ncc(Cl)cc2Cl)c1 | inconclusive: 39.8 µM [inhibitor, single point] |  |
| Cc1ccc(NCc2nnc(SCC(=O)NCc3ccco3)n2CC2CCCO2)cc1Cl (centres undefined) | inactive |  |
| Cc1ccc(Cn2ccc(NC(=O)c3nc4ncccn4n3)n2)cc1 | inactive |  |
| COc1ccc(N2C(=O)C3C4C=CC(C4)C3C2=O)c(OC)c1 (centres undefined) | inactive |  |
| O=C(CCc1nc2ccccc2c(=O)[nH]1)OCc1ccc(Cl)cc1Cl | inconclusive: 25.1 µM [inhibitor, single point] |  |
| CCOC(=O)c1c(/N=C/N(C)C)sc(/C=N/Nc2ccccc2)c1-c1ccccc1Cl | inconclusive: 28.2 µM [inhibitor, single point] |  |
| Cc1c(Cl)c(=O)n2c(=O)c(Cl)c(C)n12 | inconclusive: 25.1 µM [inhibitor, partial curve] |  |
